Data reported in PubChem BioAssay AID1345083 (National Center for Advancing Translational Sciences (NCATS), 2018).
Values joined by “and” are separate entries in the source; they are usually repeats but may differ in a detail not shown here. Equal entries are not always repeated. Out of some 94,000 compounds screened, about 6,200 (6.6%) were called active. Inconclusive means that the source gave no clear call. Such entries were picked first, then a sample of the others. Calls come from the whole dose curve; as a rule, active = well fitted inhibition curve with a large enough effect; inconclusive = small, poorly fitted or top-dose-only effect; inactive = flat fitted curve, though single readings scatter. A potency beside an inconclusive call is a rough fit, not a confirmed value.

test: Cytotoxic Profiling in HEK 293 Cell Line of Diverse Libraries Using Quantitative High-Throughput Screening; conditions: HEK 293 viability, ATP luminescence (CellTiter-Glo), 48-72 h; activity change, negative = cytotoxicity: at 115 µM (top of the series) unless noted; series mostly up to 115 µM; note: nearly all actives have a fitted effect of over 60% in size
Method in brief: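 qHTS cytotoxicity; HEK 293, 250 cells/well; compound pinned; 48 or 72 hr, 37 degree Celsius, 5% CO2, 95% humidity; CellTiter-Glo, 10 min RT; luminescence (ATP).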
% is set by controls: 0 for no effect and ±100 for the full control effect; potency is the fitted concentration of half-maximal effect; tags give direction and shape of the fitted curve.

**Q.** With `O=C(Cc1ccc(F)cc1)N1CCC(n2cc(-c3nc(-c4ccccc4)no3)nn2)CC1` as the molecule, how does the Potency read?
**A.** Its Potency is inconclusive: 10 µM [inhibitor, full curve, poor fit].

**Q.** With `N#Cc1cccc(C(=O)N2CCC3(CC2)NC(=O)N(Cc2ccc(Cl)cc2)C3=O)c1` as the molecule, how does the Potency read?
**A.** Its Potency is inconclusive: 39.8 µM [inhibitor, partial curve, poor fit].

**Q.** Which “activity change, negative = cytotoxicity” value does the source give for `COCCCn1c(C)cnc1CC1CCN(S(=O)(=O)c2cccs2)CC1` here?
**A.** Its value is inactive: 2.73%.

**Q.** Which Potency does the source give for `COc1cccc(-c2ccnc(-c3nnc(C)n3CCN3CCOCC3)c2)c1` here?
**A.** The Potency was inconclusive: 126 µM [inhibitor, single point].

**Q.** Which Potency does the source give for `Cc1nc(-c2ccccc2)n(CC(=O)Nc2ccc(F)c(Cl)c2)c(=O)c1CCO` here?
**A.** Its Potency is active: 39.8 µM.

**Q.** Which “outcome” value does the source give for `CCN(Cc1ccncc1)C(=O)c1cc(-c2cnc(C)nc2)nc2cc(F)ccc12` here?
**A.** Its value is “inactive”.

**Q.** For `COc1ccc(-c2noc(CC3CCN(C(=O)c4cc(F)ccc4F)CC3)n2)cc1`, which Potency is on record?
**A.** Its Potency is inconclusive: 50.1 µM [inhibitor, partial curve, poor fit].

**Q.** With `Cn1ncc2c(C(=O)Nc3cccc(Cl)c3)cc(-c3ccc(Cl)nc3)nc21` as the molecule, how does the Potency read?
**A.** Its Potency is inconclusive: 8.91 µM [inhibitor, full curve, poor fit].

**Q.** With `NC(=O)Cc1c[nH]c2ncc(-c3ccccc3Oc3ccccc3)cc12` as the molecule, how does the Potency read?
**A.** The Potency was inconclusive: 44.7 µM [inhibitor, partial curve, poor fit].

**Q.** With `CCC(=O)N1Cc2ccccc2CC2(CCCN(CC3CCNC3)C2)C1` (stereo not drawn) as the molecule, how does the Potency read?
**A.** Its Potency is inconclusive: 89.1 µM [inhibitor, partial curve, poor fit].

**Q.** Which Potency does the source give for `O=C(CCn1ccn2nc3c(c2c1=O)CCCC3)N1CCN(c2ccc(Cl)cc2)CC1` here?
**A.** Its Potency is inconclusive: 44.7 µM [inhibitor, partial curve].

**Q.** For `COCCNc1ncc(-c2cccc(C(C)=O)c2)c2c1OCC2`, which Potency is on record?
**A.** The Potency was inconclusive: 17.8 µM [inhibitor, full curve, poor fit].

**Q.** Which Potency does the source give for `COc1ccc(CCc2nc3nccc(-c4ccco4)n3n2)cc1OC` here?
**A.** Its Potency is inconclusive: 89.1 µM [inhibitor, single point].

**Q.** For `Cc1nnc(N2CCC(CO)(CN3CCCC3)CC2)c2ccccc12`, which “activity change, negative = cytotoxicity” value is on record?
**A.** The value was inactive: -22.4%.

**Q.** Which Potency does the source give for `CC1(C)C[C@@H]2C[C@@](C)(CN2C(=O)c2coc(COc3ccc4c(c3)OCO4)n2)C1` here?
**A.** Its Potency is inconclusive: 89.1 µM [inhibitor, single point].

**Q.** With `CCOc1ccc2c(n1)CCN(C(=O)Cc1ccccc1C)C2` as the molecule, how does the Potency read?
**A.** Its Potency is inconclusive: 89.1 µM [inhibitor, single point].

**Q.** With `O=C(c1ccco1)N1CCC(N2C(=O)[C@H]3CN(Cc4ccccc4)C[C@H]3C2=O)CC1` as the molecule, how does the “activity change, negative = cytotoxicity” value read?
**A.** Its value is inactive: -27.1%.

**Q.** For `CN(C)c1cccc(C(=O)N2CCC3(CC2)NC(=O)N(c2ccccc2)N3)c1`, which Potency is on record?
**A.** Its Potency is inconclusive: 22.4 µM [inhibitor, full curve].

**Q.** For `O=C(NCc1cccs1)c1cc2c(s1)CCN(C(=O)c1ccc(F)cc1)C2`, which Potency is on record?
**A.** Its Potency is inconclusive: 50.1 µM [inhibitor, partial curve, poor fit].

**Q.** With `COc1ccc(OCC2(C)COc3ccc(C(=O)N4C[C@@H](C)O[C@@H](C)C4)cc3N2)cc1` (stereo partly drawn) as the molecule, how does the Potency read?
**A.** The Potency was inconclusive: 89.1 µM [inhibitor, partial curve].

**Q.** With `Cc1ccc(SCc2ccc(-c3nc(C4CCOC4)no3)o2)cc1` (stereo not drawn) as the molecule, how does the Potency read?
**A.** The Potency was inconclusive: 50.1 µM [inhibitor, partial curve, poor fit].

**Q.** Which Potency does the source give for `CCCCn1c(=O)c(C(=O)NCC2CCCCC2)nc2cccnc21` here?
**A.** Its Potency is active: 35.5 µM.

**Q.** For `CC(C)c1noc([C@@H]2C[C@H]3C(=O)NCCCCCCN(C(=O)CCc4ccccc4)[C@H]3C2)n1`, which Potency is on record?
**A.** The Potency was inconclusive: 89.1 µM [inhibitor, single point].

**Q.** With `COc1ccc(C2(C(=O)N3CCCN(C)c4ccccc43)CC2)cc1` as the molecule, how does the Potency read?
**A.** The Potency was inconclusive: 50.1 µM [inhibitor, partial curve, poor fit].

**Q.** With `O=C1NCc2ccccc2CC12CCN(Cc1ccnc3ccccc13)C2` (stereo not drawn) as the molecule, how does the Potency read?
**A.** The Potency was inconclusive: 50.1 µM [inhibitor, partial curve, poor fit].

**Q.** With `C[C@H]1[C@@H]2[C@@H](O)C([C@H](C)C(=O)NCCN3CCOCC3)CC[C@@]2(C)CC[C@@H]1NC(=O)c1cnccn1` (stereo partly drawn) as the molecule, how does the “activity change, negative = cytotoxicity” value read?
**A.** Its value is inactive: 3.53%.

**Q.** Which Potency does the source give for `Cc1ccc(-c2ncc(C(=O)Nc3cccc(Br)c3)c(-c3ccncc3)n2)cc1` here?
**A.** The Potency was active: 25.1 µM.

**Q.** Which “outcome” value does the source give for `CCCCn1c(=O)c(C(=O)NC2CC2)nc2cccnc21` here?
**A.** Its value is “inactive [at 172 µM]”.

**Q.** For `CC(C)CN1C(=O)c2ccccc2C(C(=O)Nc2nncs2)C12CCCC2` (stereo not drawn), which Potency is on record?
**A.** The Potency was inconclusive: 79.4 µM [inhibitor, single point].

**Q.** With `O=C(c1ccc(Cl)s1)N1CCC(c2nc(-c3ccccc3)no2)C1` (stereo not drawn) as the molecule, how does the Potency read?
**A.** The Potency was inconclusive: 79.4 µM [inhibitor, partial curve, poor fit].

**Q.** Which Potency does the source give for `CCN(CC)C(=O)C1=C(C)N=C2SC=C(CC(=O)NCc3ccccc3)N2C1c1ccccc1F` (stereo not drawn) here?
**A.** The Potency was inconclusive: 56.2 µM [inhibitor, partial curve, poor fit].

**Q.** For `O=c1c2nc(-c3ccccc3)ccc2ncn1-c1ccccc1`, which Potency is on record?
**A.** Its Potency is inconclusive: 70.8 µM [inhibitor, full curve, poor fit].

**Q.** With `O=C(Cc1ccc(F)cc1)N1CCC[C@H]1c1nc(-c2ccc(F)cc2)no1` as the molecule, how does the Potency read?
**A.** Its Potency is inconclusive: 50.1 µM [inhibitor, partial curve, poor fit].

**Q.** For `O=C(c1cc(F)ccc1F)N1CC(c2nc(CCc3ccccc3)no2)C1`, which Potency is on record?
**A.** Its Potency is inconclusive: 44.7 µM [inhibitor, partial curve, poor fit].

**Q.** With `Cc1ccc(CN(C)C(=O)c2coc(COc3ccc(F)cc3Cl)n2)cc1` as the molecule, how does the Potency read?
**A.** Its Potency is inconclusive: 56.2 µM [inhibitor, partial curve, poor fit].

**Q.** For `COc1ccc(C(=O)N2CCC(Oc3ncccc3C(=O)N3CCCCC3)C2)c(OC)c1` (stereo not drawn), which “activity change, negative = cytotoxicity” value is on record?
**A.** The value was inactive: 0.89%.

**Q.** Which Potency does the source give for `COc1cc(NC(=O)Nc2cccc(-c3ccc(N4CCOCC4)nn3)c2)cc(OC)c1` here?
**A.** The Potency was inconclusive: 35.5 µM [inhibitor, full curve, poor fit].

**Q.** Which “outcome” value does the source give for `Cc1ccc(C(=O)N2CCC(C(=O)N3CCC(N4CCOC4=O)CC3)CC2)cc1` here?
**A.** The value was “inactive”.

**Q.** With `COc1ccc(CN2C=C(C(=O)OCc3nc(C4CCCCC4)no3)C(C)=NS2(=O)=O)cc1` as the molecule, how does the Potency read?
**A.** Its Potency is inconclusive: 22.4 µM [inhibitor, full curve].

**Q.** Which “activity change, negative = cytotoxicity” value does the source give for `COc1ccc(CC(=O)N[C@H](C)c2onc(-c3cccnc3)c2C(=O)O)cc1` here?
**A.** The value was inactive: 1.39% [at 172 µM].

**Q.** Which Potency does the source give for `Cc1ccc(-c2cc3c(=O)n(CCNC(=O)c4ccoc4)ccn3n2)cc1C` here?
**A.** The Potency was inconclusive: 11.2 µM [inhibitor, full curve].

**Q.** Which Potency does the source give for `CCn1nccc1C(=O)N1CCCC2(C=Cc3ccccc3O2)CC1` (stereo not drawn) here?
**A.** The Potency was inconclusive: 56.2 µM [inhibitor, partial curve, poor fit].

**Q.** With `CC(C)CCNC(=O)c1c(OCC2CC2)cc(=O)n2c1CCOCC2` as the molecule, how does the “activity change, negative = cytotoxicity” value read?
**A.** The value was inactive: -6.1%.

**Q.** Which “activity change, negative = cytotoxicity” value does the source give for `Cn1nccc1C(=O)N1CCC(N2CC3(CCCCC3)C2c2ccncc2)CC1` (stereo not drawn) here?
**A.** The value was inactive: 4.51%.

**Q.** For `Cc1nc2c(OCC(=O)c3ccccc3)cccn2c(=O)c1-c1cc(C)n(-c2ccc(Cl)cc2)n1`, which Potency is on record?
**A.** The Potency was inconclusive: 50.1 µM [inhibitor, partial curve, poor fit].

**Q.** With `COc1cccc(CN2CCc3nc(C(=O)N4CCOCC4)oc3CC2)c1` as the molecule, how does the Potency read?
**A.** The Potency was inconclusive: 100 µM [inhibitor, partial curve, poor fit].

**Q.** For `CCC(C)NC(=O)N1CC(Oc2ccc(-c3noc(C4CCOCC4)n3)cc2)C1` (stereo not drawn), which Potency is on record?
**A.** The Potency was inconclusive: 17.8 µM [inhibitor, partial curve, poor fit].

**Q.** With `COc1cccc(C(O)c2nc(C(=O)Nc3nc(C)cs3)c(C)o2)c1` (stereo not drawn) as the molecule, how does the Potency read?
**A.** The Potency was inconclusive: 70.8 µM [inhibitor, partial curve].

**Q.** Which Potency does the source give for `CC1=C[C@@H](CNS(=O)(=O)c2ccc(C#N)cc2)[C@H](C(C)C)C[C@H]1Cc1nnc(-c2ccncc2)o1` here?
**A.** The Potency was inconclusive: 25.1 µM [inhibitor, full curve, poor fit].

**Q.** For `Cc1cnc(-c2ccccc2)n1C1CCN(C(=O)Nc2ccccc2F)CC1`, which “activity change, negative = cytotoxicity” value is on record?
**A.** Its value is inactive: -25.3%.

**Q.** Which “outcome” value does the source give for `CN(Cc1ccccc1)C(=O)C[C@@H]1O[C@H](CNS(=O)(=O)c2ccc(Cl)cc2)[C@@H](O)[C@H]1O` here?
**A.** The value was “inactive”.

**Q.** With `O=[S+]1([O-])NCC2(CCCN(Cc3ccc(C(F)(F)F)cc3)C2)Oc2ncccc21` (stereo not drawn) as the molecule, how does the Potency read?
**A.** Its Potency is inconclusive: 35.5 µM [inhibitor, partial curve, poor fit].

**Q.** Which “outcome” value does the source give for `CC(=O)NCCCC(=O)N1Cc2ccccc2OC2(CCN([S+](C)(=O)[O-])CC2)C1` here?
**A.** Its value is “inactive”.

**Q.** With `CN1CCN(c2ccc(-c3cc4c(ccn4C)c(C(=O)NCCc4ccccn4)n3)cc2)CC1` as the molecule, how does the Potency read?
**A.** Its Potency is active: 35.5 µM.

**Q.** With `Cc1ccc2nccc(C(=O)N3CCn4nc(C(=O)N5CCCC5)cc4C3)c2c1` as the molecule, how does the Potency read?
**A.** The Potency was inconclusive: 39.8 µM [inhibitor, full curve].

**Q.** With `CCO[C@H]1CN(C2CN(S(=O)(=O)c3ccc(C)cc3)C2)C[C@@H]1O` as the molecule, how does the “outcome” value read?
**A.** Its value is “inactive”.

**Q.** For `Cn1c([C@H]2CCN(C(=O)c3cccnc3)C2)nc2ccccc21`, which Potency is on record?
**A.** The Potency was inconclusive: 31.6 µM [inhibitor, full curve].

**Q.** Which Potency does the source give for `O=C(Nc1ccc(F)cc1)C1CCCN(Cc2cccc(-c3cccs3)c2)C1` (stereo not drawn) here?
**A.** The Potency was active: 31.6 µM and active: 39.8 µM.

**Q.** For `FC(F)(F)c1cccc(C2=NOC3(CCN(Cc4cccc5ccccc45)CC3)C2)c1`, which Potency is on record?
**A.** Its Potency is inconclusive: 79.4 µM [inhibitor, single point].

**Q.** Which “activity change, negative = cytotoxicity” value does the source give for `CC(=O)Nc1ccc(S(=O)(=O)N2C[C@@H]3C[C@H](C2)c2ccc(-c4ccccc4C)c(=O)n2C3)cc1` here?
**A.** The value was inactive: -17.2%.

**Q.** Which Potency does the source give for `Cn1cc(CC(=O)N2CCCc3ncc(C(=O)NCc4ccc(F)cc4)cc32)c2ccccc21` here?
**A.** The Potency was inconclusive: 56.2 µM [inhibitor, partial curve, poor fit].

**Q.** With `CCC1(O)CCC12CCN(C(=O)Cc1cccc(F)c1)CC2` (stereo not drawn) as the molecule, how does the “activity change, negative = cytotoxicity” value read?
**A.** The value was inactive: -5.92%.

**Q.** For `CC(C)C(=O)N1CCC(Oc2ccccc2)C1` (stereo not drawn), which “activity change, negative = cytotoxicity” value is on record?
**A.** The value was inactive: 0.26%.
